Changes are numbered by the printed parent chain; changes in the protein carry UniProt numbers. The list shows a part of the results.

The chains are these.
T1: RBFOX1 RRM (Homo sapiens, UniProt Q9NWB1 109-208)
T1 sequence: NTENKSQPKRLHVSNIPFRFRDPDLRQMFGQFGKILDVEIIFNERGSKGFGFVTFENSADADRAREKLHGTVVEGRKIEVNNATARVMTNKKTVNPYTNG

B1: AGCGUCG (DNA:RNA)
RNA: GGGAGACCGGAAUUCAGAUUGUCCAGCGUCGUUAAAUCCCGUCGUAGCCACCA
DNA 1: CAATCTGAATTCCGGTCTCCC
DNA 2: TGGTGGCTACGACGGGATT
B2: UUAACUU (DNA:RNA)
RNA: GGGAGACCGGAAUUCAGAUUGUCCUUAACUUUUAAAUCCCGUCGUAGCCACCA
DNA 1: CAATCTGAATTCCGGTCTCCC
DNA 2: TGGTGGCTACGACGGGATT
B3: ACCGUCC (DNA:RNA)
RNA: B1 RNA with G26C, G31C
DNA 1: CAATCTGAATTCCGGTCTCCC
DNA 2: TGGTGGCTACGACGGGATT
B4: ACCAGCU (DNA:RNA)
RNA: B1 RNA with G26C, G28A, U29G, G31U
DNA 1: CAATCTGAATTCCGGTCTCCC
DNA 2: TGGTGGCTACGACGGGATT
B5: CCGUUGG (DNA:RNA)
RNA: B1 RNA with A25C, G26C, C27G, G28U, C30G
DNA 1: CAATCTGAATTCCGGTCTCCC
DNA 2: TGGTGGCTACGACGGGATT
B6: GAUGUUG (DNA:RNA)
RNA: B1 RNA with A25G, G26A, C27U, C30U
DNA 1: CAATCTGAATTCCGGTCTCCC
DNA 2: TGGTGGCTACGACGGGATT
B7: GCUUUAA (DNA:RNA)
RNA: B1 RNA with A25G, G26C, C27U, G28U, C30A, G31A
DNA 1: CAATCTGAATTCCGGTCTCCC
DNA 2: TGGTGGCTACGACGGGATT
B8: GAACACA (DNA:RNA)
RNA: B1 RNA with A25G, G26A, C27A, G28C, U29A, G31A
DNA 1: CAATCTGAATTCCGGTCTCCC
DNA 2: TGGTGGCTACGACGGGATT
B9: CCCAGGU (DNA:RNA)
RNA: B2 RNA with U25C, U26C, A27C, C29G, U30G
DNA 1: CAATCTGAATTCCGGTCTCCC
DNA 2: TGGTGGCTACGACGGGATT
B10: UUUGCCA (DNA:RNA)
RNA: B2 RNA with A27U, A28G, U30C, U31A
DNA 1: CAATCTGAATTCCGGTCTCCC
DNA 2: TGGTGGCTACGACGGGATT
B11: CGUAAUC (DNA:RNA)
RNA: B2 RNA with U25C, U26G, A27U, C29A, U31C
DNA 1: CAATCTGAATTCCGGTCTCCC
DNA 2: TGGTGGCTACGACGGGATT
B12: UCAGAAA (DNA:RNA)
RNA: B2 RNA with U26C, A28G, C29A, U30A, U31A
DNA 1: CAATCTGAATTCCGGTCTCCC
DNA 2: TGGTGGCTACGACGGGATT
B13: ACACGCG (DNA:RNA)
RNA: B1 RNA with G26C, C27A, G28C, U29G
DNA 1: CAATCTGAATTCCGGTCTCCC
DNA 2: TGGTGGCTACGACGGGATT
B14: GGAUUCU (DNA:RNA)
RNA: B1 RNA with A25G, C27A, G28U, G31U
DNA 1: CAATCTGAATTCCGGTCTCCC
DNA 2: TGGTGGCTACGACGGGATT
B15: CGAACAG (DNA:RNA)
RNA: B2 RNA with U25C, U26G, U30A, U31G
DNA 1: CAATCTGAATTCCGGTCTCCC
DNA 2: TGGTGGCTACGACGGGATT
B16: UCGAUUA (DNA:RNA)
RNA: B2 RNA with U26C, A27G, C29U, U31A
DNA 1: CAATCTGAATTCCGGTCTCCC
DNA 2: TGGTGGCTACGACGGGATT
B17: CCUUCGC (DNA:RNA)
RNA: B2 RNA with U25C, U26C, A27U, A28U, U30G, U31C
DNA 1: CAATCTGAATTCCGGTCTCCC
DNA 2: TGGTGGCTACGACGGGATT
B18: UAAGCAG (DNA:RNA)
RNA: B2 RNA with U26A, A28G, U30A, U31G
DNA 1: CAATCTGAATTCCGGTCTCCC
DNA 2: TGGTGGCTACGACGGGATT
B19: CGUAAUU (DNA:RNA)
RNA: B2 RNA with U25C, U26G, A27U, C29A
DNA 1: CAATCTGAATTCCGGTCTCCC
DNA 2: TGGTGGCTACGACGGGATT
B20: GCCAGUA (DNA:RNA)
RNA: B2 RNA with U25G, U26C, A27C, C29G, U31A
DNA 1: CAATCTGAATTCCGGTCTCCC
DNA 2: TGGTGGCTACGACGGGATT

The assay has as its target T1, RBFOX1 RRM. As to the kind of experiment: EMSA; HiTS-Eq, 1 nM pool, 10 min; buffer printed only for the single-RNA assays: 10 mM Tris pH 7.5, 150 mM NaCl, 3.4 mM EDTA, 0.001% NP-40, 30 C. The conditions noted are these: tags: His6 N-terminal (pET28a); label: 5' 32P. The essentials:
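Relative association constants, normalised to the cognate motif, were derived by comparing read counts of each RNA species with those of the control reaction. The RNA sequenced was the free fraction, separated by 8% native PAGE after a 10 min equilibration in 50 µL of 1 nM 5′-radiolabelled RNA (7 randomized nucleotides) with increasing concentrations of purified wild-type or mutant RbFox RRM.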
As to B1, the binding signal is 0.00992 KA relative to UGCAUGU.
In the case of B2, the binding signal is 0.00357 KA relative to UGCAUGU.
For the molecule B3, the binding signal was 0.00549 KA relative to UGCAUGU.
Turning to B4, the binding signal is 0.0028 KA relative to UGCAUGU.
Consider B5, for which the binding signal was 0.0158 KA relative to UGCAUGU.
Regarding B6, the binding signal is 0.0181 KA relative to UGCAUGU.
In the case of B7, the binding signal was 0.0104 KA relative to UGCAUGU.
Consider B8, for which the binding signal is 0.004 KA relative to UGCAUGU.
In the case of B9, the binding signal was 0.00633 KA relative to UGCAUGU.
Take B10: the binding signal was 0.012 KA relative to UGCAUGU.
Take B11: the binding signal was 0.00533 KA relative to UGCAUGU.
The value for B12 was 0.00502 KA relative to UGCAUGU.
For the molecule B13, the binding signal is 0.00375 KA relative to UGCAUGU.
For the molecule B14, the binding signal was 0.0181 KA relative to UGCAUGU.
Consider B15, for which the binding signal was 0.00625 KA relative to UGCAUGU.
Under B16 stands 0.00702 KA relative to UGCAUGU; under B17, 0.0114 KA relative to UGCAUGU.
As for B18, the binding signal was 0.0107 KA relative to UGCAUGU.
Turning to B19, the binding signal is 0.00295 KA relative to UGCAUGU.
Under B20 stands 0.00844 KA relative to UGCAUGU.
